Source: paper PMC12136788
The list shows a part of the results.

T1: UNK ZnF1-6 (called full-length) (human, UniProt Q9C0B0 30-357)
T1 sequence: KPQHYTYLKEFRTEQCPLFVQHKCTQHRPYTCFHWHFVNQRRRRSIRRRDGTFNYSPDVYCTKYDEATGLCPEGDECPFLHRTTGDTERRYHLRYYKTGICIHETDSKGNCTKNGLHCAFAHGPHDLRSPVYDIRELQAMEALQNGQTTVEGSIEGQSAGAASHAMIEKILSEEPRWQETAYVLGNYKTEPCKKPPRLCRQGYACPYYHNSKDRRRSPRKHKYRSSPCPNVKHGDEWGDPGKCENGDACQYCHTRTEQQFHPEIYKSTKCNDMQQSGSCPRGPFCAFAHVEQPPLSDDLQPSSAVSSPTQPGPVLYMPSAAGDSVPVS

B1: chr13:113500007:113500108:+|CDS|ENSG00000150403|unk|total|mutant (ssRNA)
RNA: GGGAGUUCUACAGUCCGACGAUCGAAGAGGCCAAUUCUAAGCAAAAUAUAACAAAACGAGAAGUGGAGGAUGACUUGGGUCUCCGCAUGCUGAUUGACUCCCAGAACAACCAGUAUAUUUUGACCAAGCCCAGAGAUUCAACCCAACAGAGGAUUGAGCAUCA
B2: chr2:167954955:167954998:-|3pUTR|ENSG00000198648|msi1_unk|total|mutant (ssRNA)
RNA: GGGAGUUCUACAGUCCGACGAUCGUUGUAUUCCGAAAUUAAUAUACUUAUAAAAUUAAGAUUUAUCCGCCAAACUUGAAUUCCCGUUUUAAAACUGACUGUGAAUUUUAUUUUUCAUAUAUUUAUGCAUUACACACCUCCGCUCAACAGAGGAUUGAGCAUCA
B3: chr10:75150949:75151073:+|CDS|ENSG00000156671|unk|total|mutant (ssRNA)
RNA: GGGAGUUCUACAGUCCGACGAUCUGUUCGAAGAUUGGACCCAGAAUACUGGAAGACUAUACUGAGUUGUAUAUAUGUUUUUACCGUAUUUGGAUUUACAUCUUUCAUUAUGGUUACCGUCCAUGAGCGAGUGCCUGACAUGCACAACAGAGGAUUGAGCAUCA
B4: chr14:96341565:96341677:-|CDS|ENSG00000066739|unk|FALSE|unique (ssRNA)
RNA: GGGAGUUCUACAGUCCGACGAUCCUGGAACCCCAAAAUUAUUUAUGAGCCACACCCACAGCUAACUAGAAAUUUACCAGAGAUAGCACCUUCUGACCCAGUGCAGAUUGGACGGUUAAUUGGUAGGUUGGAGUUGAGUCUCACCAACAGAGGAUUGAGCAUCA
B5: chr16:20924479:20924582:+|3pUTR|ENSG00000102897|unk|FALSE|unique (ssRNA)
RNA: GGGAGUUCUACAGUCCGACGAUCCUACUAUAAAACUAUGUACCACUCUCAGAAUAUUCUUAGGCUUUUUUUUUUUCAAGUUAUAGAUUUGCUUAAAGUGAGGUUUUUUGGUGUGUGCUUUUUUGUUGUCUUUUGACCCUUCCACAACAGAGGAUUGAGCAUCA
B6: chr9:34610807:34611296:-|CDS|ENSG00000164967|control|control|control (ssRNA)
RNA: GGGAGUUCUACAGUCCGACGAUCCAAGCUACGUUUCCUUCAGACUGAGGACAGCUGGGUCCCAGCCUCACCUGACACAGGGCUAGACCCCCUCACAGUGCGCCGCCAUGUGCCUGCAGUGUGGGUGCUGCUCAGCCGGGACCCCAACAGAGGAUUGAGCAUCA
B7: ENSG00000141127:stop:overlap|stop_codon|ENSG00000141127|stop_codon|NA|stop_codon (ssRNA)
RNA: GGGAGUUCUACAGUCCGACGAUCAUUCAUCAUGUAUGGAGCUAUCAAAGAAAAUUGCAGACUUUUUCCCCCUUUCUCUUCUCUAGGCGGCUAGGGGUGGAGAUGGGCAAAGUGCAGGUUUACCAGGAACCUAACAGAGAAACACAACAGAGGAUUGAGCAUCA
B8: chr13:77097425:77097526:-|CDS|ENSG00000005810|msi1|total|mutant (ssRNA)
RNA: GGGAGUUCUACAGUCCGACGAUCAGAAAAGGCAGAAGUCCGGCCCAGGGGUAAUUUGUUUGGAGAGAUGGCCCAGCUGGCAGCCGGAGGACCAGAGAAAGAUACCAUCUGUGAACUGUGUGGGGAGUCACAUCCAUACCCGGUCAACAGAGGAUUGAGCAUCA
B9: chr3:98797553:98797658:-|3pUTR|ENSG00000057019|msi1|total|mutant (ssRNA)
RNA: GGGAGUUCUACAGUCCGACGAUCAUUUCAUUCAUUGAAGAAUCAAUACAUAUUUUGUUUCAAAAUGUUUGAAACAAAAGACACCGAUGGCCGACUUUUAUUAAAACAUAUAUGGAUGUGGAAAGCACAUAUAUUAAUGCAGUCCAACAGAGGAUUGAGCAUCA
B10: chr14:77132432:77132533:-|3pUTR|ENSG00000177108|unk|total|mutant (ssRNA)
RNA: GGGAGUUCUACAGUCCGACGAUCUGUGAUUGCUGGACCCAGAGGCAAGAUCUGCAGAGAUGCCUGUGAGAUAUUUGCUUUCCCCGAGGGGAGUGUGGGCAUGGGAGGGGUCUGAAAAUCAGGACCCAACCCAGCCACUGAAGACAACAGAGGAUUGAGCAUCA
B11: ENSG00000198589:be:win_7901|CDS|ENSG00000198589|bound_else_gene|NA|bound_elsewhere_windowed (ssRNA)
RNA: GGGAGUUCUACAGUCCGACGAUCCUCGUUCUGAGUCAUAUAUUGGGGGAAAUUGCUACAUUCUCUCAGGGUCACGUGAUGCAACUCUUUUGCUGUGGUAUUGGAAUGGAAAAUGCAGUGGGAUUGGAGAUAACCCAGGCAGUGCAACAGAGGAUUGAGCAUCA
B12: chr11:102396659:102396760:-|3pUTR|ENSG00000152558|msi1_unk|FALSE|overlapping (ssRNA)
RNA: GGGAGUUCUACAGUCCGACGAUCCUUUUUCUCUGUAUGUAAGUAGUAUAAUUUGUUACUUUCAAAUACCCGUACUUUGAAUGUAGGUUUUUUUGUUGUUGUUAUCUAUAAAAAUUGAGGGAAAUGGUUAUGCAAAAAAAUAUUCAACAGAGGAUUGAGCAUCA
B13: chr17:28327902:28328001:+|3pUTR|ENSG00000109084|msi1_unk|total|mutant (ssRNA)
RNA: GGGAGUUCUACAGUCCGACGAUCUCCCUGUAUCUGAAGUCCCGCAUCUCAAGGCUGAUCUGGAAGUGUGCCCGUAUGCUCCCCCGUGGAUAACUUAAUCUUUUAAUACAGUUCCGUCAUUCCCAUCUUGUUUUCAGAAGAGAACAACAGAGGAUUGAGCAUCA
B14: chr8:103427116:103427218:+|CDS|ENSG00000164934|unk|total|mutant (ssRNA)
RNA: GGGAGUUCUACAGUCCGACGAUCGUAUACUGGGAUUGAUCAUCACUGGAAAGAAGCUGUUUUUGCCACAUGUGGACAGCAAGCCGACAUUUGGGAUGAACAAAGAACUAAUCCUAUAUGUUCAAUGACCUGGGGAUUUGACAGCAACAGAGGAUUGAGCAUCA
B15: chr17:41691520:41691533:+|3pUTR|ENSG00000173812|msi1_unk|total|mutant (ssRNA)
RNA: GGGAGUUCUACAGUCCGACGAUCGGAACAAAUCUCAAACUGAUCCAUCAGUCAUGCCGCCCGCUGCCGAGCUUGCAACUUAACCGCAGCAGCUGCCCAAUGCCAUGUGAAGUAACAAACUGGUUUUUGGUUUUUUUUUCCCCUCAACAGAGGAUUGAGCAUCA
B16: chr19:36514967:36515079:-|CDS|ENSG00000254004|unk|FALSE|unique (ssRNA)
RNA: GGGAGUUCUACAGUCCGACGAUCCAUGAAUGCACUGAAUGUGGUAAAGUGUGCUCUCGAGUCUCAUCUCUUACUCUACACCUUAGAAGUCACACAGGAAAGAAGGCAUAUAAAUGUAAUAAAUGUGGAAAAGCCUUCAGCCAGCAACAGAGGAUUGAGCAUCA
B17: chr13:109754583:109754684:-|3pUTR|ENSG00000185950|msi1|total|mutant (ssRNA)
RNA: GGGAGUUCUACAGUCCGACGAUCGAUCUCCCUGAACAUUUUUAAGGUUUUACUUUUCUGAAAUUAUACAUCACAGCAGUGCACCGGCCAUAUAAUGUCCGCUGGAAGGUCAAUUUCAGUGUAUGAUAUACUUUAUUAAGAUGUCAACAGAGGAUUGAGCAUCA
B18: chr16:2708819:2708933:+|3pUTR|ENSG00000167977|unk|FALSE|unique (ssRNA)
RNA: GGGAGUUCUACAGUCCGACGAUCCUCUCUGGGGAGCUGCUGGCCGCUUAGCGUUGUUUGAUUUUUGACCUUGACAUAGUAGAUAGGCUUGUGGUUUUUUUAAUUUAAAGAUAUUAAGACUUAAUUCACUAAAAUUUAUUCUAACAACAGAGGAUUGAGCAUCA
B19: chr11:57661263:57661364:+|CDS|ENSG00000172409|unk|FALSE|unique (ssRNA)
RNA: GGGAGUUCUACAGUCCGACGAUCCCACCUACUGAGUGUUAGCACUGCCGAGGGUACAGAGGAGAACCUGUCCGAGACAAGUGUAGCUGGCUUCAUUGUGGUGACCAGUGUGGACCUGGAGCAUCAGGUGUUUACUGUUCUGUCCAACAGAGGAUUGAGCAUCA
B20: chr11:64204363:64204470:+|3pUTR|ENSG00000168439|unk|FALSE|unique (ssRNA)
RNA: GGGAGUUCUACAGUCCGACGAUCGCCCUCGAGUUCCAUGUCUCUUUCCCCUGCCCCUAGUUGCUGUCUCGGCUGCUCUCCCAUAGUUGGUUUUUUUUUUAUUUGGGGCAGUGGGCAUGUUAUGGGGAGGGGAGGGGGUUCUUCCAACAGAGGAUUGAGCAUCA
B21: chr5:138934237:138934351:+|3pUTR|ENSG00000044115|msi1_unk|total|mutant (ssRNA)
RNA: GGGAGUUCUACAGUCCGACGAUCUUUCCAAGAACACCGUUUAAGUUGAUUAAAAAUGCUUUCCGAAUGCAGGAGCCUACUUCCCGCUGUAUUUUUUGUAUGCUUAAAUAAAAAUAAAAAUUCAUAACCAAAGAGAAUCCCACACAACAGAGGAUUGAGCAUCA
B22: chr17:68278117:68278284:-|CDS|ENSG00000108932|unk|total|mutant (ssRNA)
RNA: GGGAGUUCUACAGUCCGACGAUCGCUUUGUUCCAAAGCCAAUGUGUAUACUGAAGUGCCUGAUGGAGGAUGGGGCUGGGCGGCCGCUGUUUCAUUUUUCUUCGUUGAAGUCUUCACCUACGGCAUCAUCAAGACAUUUGGUGUCAACAGAGGAUUGAGCAUCA

Each binder was assayed against T1, UNK ZnF1-6 (called full-length) (assay: nsRBNS (natural sequence RNA bind-n-seq); RBNS binding buffer (assumed for nsRBNS): 25 mM Tris pH 7.5, 150 mM KCl, 3 mM MgCl2, 0.01% Triton X-100, 500 ug/ml BSA, 20 U/ml SUPERase-In, 4 C; UNK is unkempt and MSI1 is Musashi-1; names of the RNAs are library labels; protein concentration not given here; high values mean tight binding).

Going from B1 to B2, the binding signal rises from 0.588 enrichment R to 3.43 enrichment R.

Going from B3 to B4, the binding signal rises from 0.336 enrichment R to 2.44 enrichment R.

Going from B5 to B6, the binding signal falls from 8.67 enrichment R to 0.668 enrichment R.

Compared with B7, B8 is higher in binding signal: 0.392 enrichment R for the first, 0.764 enrichment R for the second.

First: B9
Second: B10
The binding signal of the first is higher: 0.53 enrichment R for the first, 0.528 enrichment R for the second.

First: B11
Second: B12
The binding signal of the first is lower: 0.728 enrichment R for the first, 1.58 enrichment R for the second.

Going from B13 to B14, the binding signal falls from 0.767 enrichment R to 0.51 enrichment R.

First: B15
Second: B16
The binding signal of the first is higher: 0.624 enrichment R for the first, 0.418 enrichment R for the second.

Compared with B17, B18 is higher in binding signal: 0.699 enrichment R for the first, 14.8 enrichment R for the second.

Going from B19 to B20, the binding signal rises from 0.603 enrichment R to 20.5 enrichment R.

Compared with B21, B22 is lower in binding signal: 0.779 enrichment R for the first, 0.708 enrichment R for the second.
